# The supplement of paper PMC8728848
# The list shows a part of the results.
# Columns and labels:
# Experiment in all cases: glycan array binding signal (z-score within array); higher = stronger binding
# Settings in all cases: glycan notation: IUPAC condensed, linker removed
# [1] = target: Fuc(a1-2)Gal
# Method in brief: (§1)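 Glycan array data were curated from 3228 arrays in the Consortium for Functional Glycomics database and kept only where the protein sequence was available. Glycan names were converted to IUPAC-condensed notation, and columns mapping to the same glycan were averaged. The binding signal is a within-array Z-score, averaged across arrays of the same protein sequence at different concentrations or buffers and across linkers. Negative Z-scores can be read as non-binding.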
# [2] = target: Fuc(a1-2)Gal(b1-3)GalNAc
# Method in brief: as §1
# [3] = target: Fuc(a1-2)Gal(b1-3)GalNAc(a1-3)[Fuc(a1-2)]Gal(b1-4)Glc
# Method in brief: as §1
# [4] = target: Fuc(a1-2)Gal(b1-3)GalNAc(a1-3)[Fuc(a1-2)]Gal(b1-4)GlcNAc
# Method in brief: as §1
# [5] = target: Fuc(a1-2)Gal(b1-3)GalNAc(b1-3)Gal
# Method in brief: as §1
# [6] = target: Fuc(a1-2)Gal(b1-3)GalNAc(b1-3)Gal(a1-4)Gal(b1-4)Glc
# Method in brief: as §1
# [7] = target: Fuc(a1-2)Gal(b1-3)GalNAc(b1-4)[Neu5Ac(a2-3)]Gal(b1-4)Glc
# Method in brief: as §1
# [8] = target: Fuc(a1-2)Gal(b1-3)GlcNAc
# Method in brief: as §1
# [9] = target: Fuc(a1-2)Gal(b1-3)GlcNAc(b1-2)Man(a1-3)[Fuc(a1-2)Gal(b1-3)GlcNAc(b1-2)Man(a1-6)]Man(b1-4)GlcNAc(b1-4)GlcNAc
# Method in brief: as §1
# [10] = target: Fuc(a1-2)Gal(b1-3)GlcNAc(b1-2)Man(a1-3)[Fuc(a1-2)Gal(b1-3)GlcNAc(b1-2)Man(a1-6)]Man(b1-4)GlcNAc(b1-4)[Fuc(a1-6)]GlcNAc
# Method in brief: as §1
# [11] = target: Fuc(a1-2)Gal(b1-3)GlcNAc(b1-3)Gal(b1-4)Glc
# Method in brief: as §1
# [12] = target: Fuc(a1-2)Gal(b1-3)GlcNAc(b1-3)GalNAc
# Method in brief: as §1
# [13] = target: Fuc(a1-2)Gal(b1-3)GlcNAc(b1-3)[Fuc(a1-2)Gal(b1-3)GlcNAc(b1-6)]GalNAc
# Method in brief: as §1
# [14] = target: Fuc(a1-2)Gal(b1-3)GlcNAc(b1-3)[Gal(b1-4)GlcNAc(b1-6)]Gal(b1-4)Glc
# Method in brief: as §1
# [15] = target: Fuc(a1-2)Gal(b1-3)GlcNAc(b1-3)[Neu5Ac(a2-6)Gal(b1-4)GlcNAc(b1-6)]Gal(b1-4)Glc
# Method in brief: as §1
# [16] = target: Fuc(a1-2)Gal(b1-3)GlcNAc6S
# Method in brief: as §1
# [17] = target: Fuc(a1-2)Gal(b1-3)[Fuc(a1-4)]GlcNAc
# Method in brief: as §1
# [18] = target: Fuc(a1-2)Gal(b1-3)[Fuc(a1-4)]GlcNAc(b1-2)Man(a1-3)[Fuc(a1-2)Gal(b1-3)[Fuc(a1-4)]GlcNAc(b1-2)Man(a1-3)]Man(b1-4)GlcNAc(b1-4)GlcNAc
# Method in brief: as §1
# [19] = target: Fuc(a1-2)Gal(b1-3)[Fuc(a1-4)]GlcNAc(b1-2)Man(a1-3)[Fuc(a1-2)Gal(b1-3)[Fuc(a1-4)]GlcNAc(b1-2)Man(a1-6)]Man(b1-4)GlcNAc(b1-4)[Fuc(a1-6)]GlcNAc(b1-4)[Fuc(a1-6)]GlcNAc
# Method in brief: as §1
# [20] = target: Fuc(a1-2)Gal(b1-3)[Fuc(a1-4)]GlcNAc(b1-3)[Fuc(a1-3)[Gal(b1-4)]GlcNAc(b1-6)]Gal(b1-4)Glc
# Method in brief: as §1
# [21] = target: Fuc(a1-2)Gal(b1-3)[Fuc(a1-4)]GlcNAc(b1-3)[Gal(b1-4)GlcNAc(b1-6)]Gal(b1-4)Glc
# Method in brief: as §1
# [22] = target: Fuc(a1-2)Gal(b1-4)Glc
# Method in brief: as §1
# [23] = target: Fuc(a1-2)Gal(b1-4)Glc6S
# Method in brief: as §1
# [24] = target: Fuc(a1-2)Gal(b1-4)GlcNAc
# Method in brief: as §1
# [25] = target: Fuc(a1-2)Gal(b1-4)GlcNAc(b1-2)Man
# Method in brief: as §1
# [26] = target: Fuc(a1-2)Gal(b1-4)GlcNAc(b1-2)Man(a1-3)[Fuc(a1-2)Gal(b1-4)GlcNAc(b1-2)Man(a1-6)]Man(b1-4)GlcNAc(b1-4)GlcNAc
# Method in brief: as §1
# [27] = target: Fuc(a1-2)Gal(b1-4)GlcNAc(b1-2)Man(a1-3)[Fuc(a1-2)Gal(b1-4)GlcNAc(b1-2)Man(a1-6)]Man(b1-4)GlcNAc(b1-4)[Fuc(a1-6)]GlcNAc
# Method in brief: as §1
# [28] = target: Fuc(a1-2)Gal(b1-4)GlcNAc(b1-2)[Fuc(a1-2)Gal(b1-4)GlcNAc(b1-4)]Man(a1-3)[Fuc(a1-2)Gal(b1-4)GlcNAc(b1-2)Man(a1-6)]Man(b1-4)GlcNAc(b1-4)GlcNAc
# Method in brief: as §1
# [29] = target: Fuc(a1-2)Gal(b1-4)GlcNAc(b1-3)Gal(b1-4)GlcNAc
# Method in brief: as §1
# [30] = target: Fuc(a1-2)Gal(b1-4)GlcNAc(b1-3)Gal(b1-4)GlcNAc(b1-2)Man(a1-3)[Fuc(a1-2)Gal(b1-4)GlcNAc(b1-3)Gal(b1-4)GlcNAc(b1-2)Man(a1-6)]Man(b1-4)GlcNAc(b1-4)GlcNAc
# Method in brief: as §1
# [31] = target: Fuc(a1-2)Gal(b1-4)GlcNAc(b1-3)Gal(b1-4)GlcNAc(b1-3)Gal(b1-4)GlcNAc
# Method in brief: as §1
# [32] = target: Fuc(a1-2)Gal(b1-4)GlcNAc(b1-3)GalNAc
# Method in brief: as §1
# [33] = target: Fuc(a1-2)Gal(b1-4)GlcNAc(b1-3)[Fuc(a1-2)Gal(b1-4)GlcNAc(b1-6)]GalNAc
# Method in brief: as §1
# [34] = target: Fuc(a1-2)Gal(b1-4)GlcNAc(b1-3)[Fuc(a1-3)[Gal(b1-4)]GlcNAc(b1-6)]Gal(b1-4)Glc
# Method in brief: as §1
# [35] = target: Fuc(a1-2)Gal(b1-4)GlcNAc(b1-6)GalNAc
# Method in brief: as §1
# [36] = target: Fuc(a1-2)Gal(b1-4)GlcNAc6S
# Method in brief: as §1
# [37] = target: Fuc(a1-2)Gal(b1-4)[Fuc(a1-3)]GlcNAc
# Method in brief: as §1
# [38] = target: Fuc(a1-2)Gal(b1-4)[Fuc(a1-3)]GlcNAc(b1-2)Man(a1-3)[Fuc(a1-2)Gal(b1-4)[Fuc(a1-3)]GlcNAc(b1-2)Man(a1-6)]Man(b1-4)GlcNAc(b1-4)[Fuc(a1-6)]GlcNAc
# Method in brief: as §1
# [39] = target: Fuc(a1-2)Gal(b1-4)[Fuc(a1-3)]GlcNAc(b1-2)[Fuc(a1-2)Gal(b1-4)[Fuc(a1-3)]GlcNAc(b1-4)]Man(a1-3)[Fuc(a1-2)Gal(b1-4)[Fuc(a1-3)]GlcNAc(b1-2)Man(a1-6)]Man(b1-4)GlcNAc(b1-4)GlcNAc
# Method in brief: as §1
# [40] = target: Fuc(a1-2)Gal(b1-4)[Fuc(a1-3)]GlcNAc(b1-3)Gal(b1-4)[Fuc(a1-3)]GlcNAc
# Method in brief: as §1
# [41] = target: Fuc(a1-2)Gal(b1-4)[Fuc(a1-3)]GlcNAc(b1-3)Gal(b1-4)[Fuc(a1-3)]GlcNAc(b1-3)Gal(b1-4)[Fuc(a1-3)]GlcNAc
# Method in brief: as §1
# [42] = target: Fuc(a1-2)Gal(b1-4)[Fuc(a1-3)]GlcNAc(b1-3)GalNAc
# Method in brief: as §1
# [43] = target: Fuc(a1-2)Gal(b1-4)[Fuc(a1-3)]GlcNAc(b1-3)[Neu5Ac(a2-6)Gal(b1-4)GlcNAc(b1-6)]Gal(b1-4)Glc
# Method in brief: as §1
# [44] = target: Fuc(a1-2)Gal3S(b1-4)GlcNAc
# Method in brief: as §1
# [45] = target: Fuc(a1-2)Gal6S(b1-3)GlcNAc
# Method in brief: as §1
binder,measurement,setting,value
Arath Fbox LD (Arabidopsis thaliana) (protein) EFSVWLEKASGKRCLMLSAMNLSIIWGDNPQYWQWIPIPESRFEKVAKLRDVCWFEIRGRTNTRVLSPRTRYSAYIVFKGVDKCYGFQNVAIEAAVGVVGQEPSRRLICFSEAIRRGRRNVVKPKQREDGWMEIELGEFFNDGGIMDNDEIEMSALETKQLNRKCGLIIQGIEIRPAKILAAASFLEQKLISEEDLNSAVDHHHHHH,glycan array binding signal (z-score),[1],0.094
same,glycan array binding signal (z-score),[2],-0.488
same,glycan array binding signal (z-score),[3],-0.137
same,glycan array binding signal (z-score),[4],-0.427
same,glycan array binding signal (z-score),[5],-0.344
same,glycan array binding signal (z-score),[6],-0.358
same,glycan array binding signal (z-score),[7],0.037
same,glycan array binding signal (z-score),[8],1.32
same,glycan array binding signal (z-score),[9],-0.423
same,glycan array binding signal (z-score),[10],0.392
same,glycan array binding signal (z-score),[11],-0.109
same,glycan array binding signal (z-score),[12],-0.338
same,glycan array binding signal (z-score),[13],-0.273
same,glycan array binding signal (z-score),[14],-0.625
same,glycan array binding signal (z-score),[15],-0.52
same,glycan array binding signal (z-score),[16],-0.164
same,glycan array binding signal (z-score),[17],-0.523
same,glycan array binding signal (z-score),[18],0.902
same,glycan array binding signal (z-score),[19],-0.515
same,glycan array binding signal (z-score),[20],-0.601
same,glycan array binding signal (z-score),[21],-0.549
same,glycan array binding signal (z-score),[22],0.065
same,glycan array binding signal (z-score),[23],-0.443
same,glycan array binding signal (z-score),[24],0.053
same,glycan array binding signal (z-score),[25],-0.526
same,glycan array binding signal (z-score),[26],1.26
same,glycan array binding signal (z-score),[27],-0.274
same,glycan array binding signal (z-score),[28],0.105
same,glycan array binding signal (z-score),[29],-0.456
same,glycan array binding signal (z-score),[30],-0.376
same,glycan array binding signal (z-score),[31],-0.605
same,glycan array binding signal (z-score),[32],-0.345
same,glycan array binding signal (z-score),[33],0.04
same,glycan array binding signal (z-score),[34],-0.533
same,glycan array binding signal (z-score),[35],-0.486
same,glycan array binding signal (z-score),[36],-0.426
same,glycan array binding signal (z-score),[37],1.27
same,glycan array binding signal (z-score),[38],-0.566
same,glycan array binding signal (z-score),[39],-0.135
same,glycan array binding signal (z-score),[40],-0.378
same,glycan array binding signal (z-score),[41],-0.077
same,glycan array binding signal (z-score),[42],-0.272
same,glycan array binding signal (z-score),[43],-0.398
same,glycan array binding signal (z-score),[44],-0.625
same,glycan array binding signal (z-score),[45],-0.537
